The values that follow come from the supplement of paper PMC10369915.

This is one part of the list. Rule as the data show it: active = 3.2 or more and inactive = the rest. Most of these values are background signal.

B1: TTF1_Y357_G360V (peptide)
chain: SLESAYPEVSQ
B2: TRPV4_Y91 (peptide)
chain: LESTLYESSVV
B3: TRPC6_Y896_R895L (peptide)
chain: ISSLLYELLEE
B4: TTN_Y28165_R28168Q (peptide)
chain: KPGVNYYFQVS
B5: TRPV1_Y310_M315I (peptide)
chain: FVTSMYNEILI
B6: TTN_Y20328 (peptide)
chain: KINKMYSDRAM
B7: TTN_Y20731 (peptide)
chain: SKDSAYVTWEP
B8: TTLL5_Y542 (peptide)
chain: LHAALYERKLL
B9: TREM1_Y29 (peptide)
chain: LTEEKYELKEG
B10: TPP1_Y459_A454E (peptide)
chain: ELSDGYWVVSN
B11: TTN_Y19764_T19762I_YF (peptide)
chain: GFIISYREEEQ
B12: TRPC6_Y775 (peptide)
chain: PKSLFYLLLKL
B13: TTN_Y20178 (peptide)
chain: IPQEEYTATGL
B14: TTN_Y13783 (peptide)
chain: ANVKWYRNGRE
B15: TTN_Y13435_R13434K (peptide)
chain: IETGKYEILTE
B16: TTN_Y20078_S20075L (peptide)
chain: VRLTEYPCAGL
B17: TTN_Y22309_K22306N (peptide)
chain: WANPEYTGGFK
B18: TTN_Y31721_R31724Q (peptide)
chain: TENAGYYFQVS
B19: TTN_Y25826_T25821K (peptide)
chain: KACNPYKPPGP
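Also: displayed peptides selected on beads carrying the immobilized SH2 domain, with library peptides lacking any tyrosine serving as negative controls.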

For the first assay, the target named is SHP2 C-SH2 domain E139D. Kind of assay: enrichment score (SH2-bound / input frequency) (ratio); bacterial display of known human phosphotyrosine sites (pTyr-Var adds point mutants) read by sequencing; higher = stronger binding; tyrosines were phosphorylated by kinases first. The following applies: peptide library: pTyr-Var.
B1: the enrichment score was inactive: 0.528.
Take B2: the enrichment score is inactive: 0.814.
As for B3, the enrichment score is inactive: 1.28.
On the same count and under the same terms, the figure for B4 is inactive: 1.11.
Turning to B5, the enrichment score was inactive: 2.23.
For B6, the enrichment score was inactive: 0.66.
In the case of B7, the enrichment score is inactive: 0.765.
Consider B8, for which the enrichment score was inactive: 0.947.
In the case of B9, the enrichment score is inactive: 0.635.
On the same count and under the same terms, the figure for B10 is inactive: 0.564; for B11 it is inactive: 1.44.
Still for that read-out and setting: the figure for B12 is inactive: 1.22; for B13 it is inactive: 0.814.
Take B14: the enrichment score was inactive: 0.39.
On to B15, for which the enrichment score is inactive: 0.69.
The same measure, in the same setting: the figure for B16 is inactive: 0.804.
As for B17, the enrichment score was inactive: 0.946.
The same measure, in the same setting: the figure for B18 is inactive: 0.744; for B19 it is inactive: 0.925.

In the next assay the target is SHP2 C-SH2 domain wild-type. Described as above. The conditions noted are these: peptide library: pTyr-Var.
Take B1: the enrichment score was inactive: 0.517.
With B2, the enrichment score was inactive: 0.556.
As for B3, the enrichment score is inactive: 1.09.
Same read-out and setting: the figure for B4 is inactive: 1.43; for B5 it is inactive: 2.04.
With B6, the enrichment score is inactive: 0.583.
The same measure, in the same setting: the figure for B7 is inactive: 0.637.
On to B8, for which the enrichment score was inactive: 0.675.
Same read-out and setting: the figure for B9 is inactive: 0.766; for B10 it is inactive: 0.805.
Take B11: the enrichment score was inactive: 0.965.
B12: the enrichment score was inactive: 0.845.
On to B13, for which the enrichment score is inactive: 0.675.
As to B14, the enrichment score is inactive: 0.384.
With B15, the enrichment score was inactive: 0.681.
Take B16: the enrichment score is inactive: 0.804.
The same measure, in the same setting: the figure for B17 is inactive: 1.09; for B18 it is inactive: 0.996.
Turning to B19, the enrichment score was inactive: 0.845.

In a further assay the target is SHP2 N-SH2 domain L43F. The assay is described as above. The conditions noted are these: peptide library: pTyr-Var.
With B1, the enrichment score was inactive: 0.549.
In the case of B2, the enrichment score was inactive: 0.748.
The same measure, in the same setting: the figure for B3 is inactive: 1.3.
As to B4, the enrichment score was inactive: 1.1.
In the case of B5, the enrichment score is inactive: 2.7.
For the molecule B6, the enrichment score was inactive: 0.513.
For B7, the enrichment score was inactive: 0.71.
Turning to B8, the enrichment score was inactive: 0.88.
As to B9, the enrichment score is inactive: 1.28.
Take B10: the enrichment score was inactive: 0.511.
Consider B11, for which the enrichment score was inactive: 1.35.
Still for that read-out and setting: the figure for B12 is inactive: 0.96; for B13 it is inactive: 0.697.
Take B14: the enrichment score was inactive: 0.368.
In the case of B15, the enrichment score was inactive: 0.632.
The same measure, in the same setting: the figure for B16 is inactive: 0.804.
B17: the enrichment score is inactive: 1.03.
Still for that read-out and setting: the figure for B18 is inactive: 0.616; for B19 it is inactive: 0.822.

For a further assay, the target named is SHP2 N-SH2 domain T42A. Described as above. The conditions noted are these: peptide library: pTyr-Var.
For the molecule B1, the enrichment score is inactive: 0.527.
As to B2, the enrichment score was inactive: 0.793.
On to B3, for which the enrichment score is inactive: 1.31.
On the same count and under the same terms, the figure for B4 is inactive: 0.986; for B5 it is active: 5.52; for B6 it is inactive: 0.609.
B7: the enrichment score was inactive: 0.622.
In the case of B8, the enrichment score was inactive: 0.98.
Same read-out and setting: the figure for B9 is inactive: 0.826; for B10 it is inactive: 0.55.
Regarding B11, the enrichment score is inactive: 1.06.
In the case of B12, the enrichment score was inactive: 0.777.
As for B13, the enrichment score was inactive: 0.723.
On to B14, for which the enrichment score was inactive: 0.401.
Regarding B15, the enrichment score was inactive: 0.768.
For B16, the enrichment score is inactive: 0.672.
Take B17: the enrichment score is inactive: 0.844.
As to B18, the enrichment score is inactive: 0.963.
In the case of B19, the enrichment score was inactive: 0.707.

The target in another assay is SHP2 N-SH2 domain T52S. The description is as above. The following applies: peptide library: pTyr-Var.
On to B1, for which the enrichment score was inactive: 0.5.
As for B2, the enrichment score is inactive: 0.681.
With B3, the enrichment score was inactive: 1.06.
With B4, the enrichment score is inactive: 1.14.
As to B5, the enrichment score was inactive: 2.43.
B6: the enrichment score was inactive: 0.578.
On to B7, for which the enrichment score is inactive: 0.667.
Take B8: the enrichment score was inactive: 1.
With B9, the enrichment score was inactive: 1.
On the same count and under the same terms, the figure for B10 is inactive: 0.74; for B11 it is inactive: 1.43; for B12 it is inactive: 0.654.
As to B13, the enrichment score is inactive: 0.936.
On to B14, for which the enrichment score is inactive: 0.25.
Take B15: the enrichment score was inactive: 0.601.
Consider B16, for which the enrichment score was inactive: 0.78.
B17: the enrichment score was inactive: 0.683.
Turning to B18, the enrichment score was inactive: 0.761.
With B19, the enrichment score is inactive: 0.718.

In another assay the target is SHP2 N-SH2 domain wild-type. The description is as above. The conditions noted are these: peptide library: pTyr-Var.
Regarding B1, the enrichment score is inactive: 0.367.
As for B2, the enrichment score was inactive: 0.648.
Regarding B3, the enrichment score was inactive: 1.28.
Consider B4, for which the enrichment score is inactive: 1.04.
Regarding B5, the enrichment score is inactive: 2.05.
As to B6, the enrichment score was inactive: 0.741.
Still for that read-out and setting: the figure for B7 is inactive: 0.835; for B8 it is inactive: 1.17.
B9: the enrichment score was inactive: 1.53.
Consider B10, for which the enrichment score was inactive: 0.788.
Turning to B11, the enrichment score was inactive: 1.06.
For the molecule B12, the enrichment score is inactive: 0.95.
With B13, the enrichment score is inactive: 0.879.
The same measure, in the same setting: the figure for B14 is inactive: 0.29.
For B15, the enrichment score was inactive: 0.932.
With B16, the enrichment score is inactive: 0.892.
Same read-out and setting: the figure for B17 is inactive: 1.07; for B18 it is inactive: 1.17.
As to B19, the enrichment score is inactive: 0.926.
